Results taken from article PMC10668032.
The other results are listed elsewhere or left out. At the low end of the ranking the order means little.

Each sequence was assayed against SIX1 homeodomain (reference allele) (UniProt Q15475) (assay: universal protein binding microarray). Settings: Universal all-10-mer PBM (8x60K, AMADID 030236), 300 nM GST-tagged protein, Alexa Fluor 488 anti-GST; buffer, salt, pH and temperature not stated; high values mean tight binding; most listed sequences are background and not binding sites; double strand, one strand shown.

| Sequence | binding signal [E-score] |
| --- | --- |
| GCCCTTCA | -0.102 |
| TCGATAAA | -0.142 |
| GGACTCGA | -0.039 |
| ACTTGTAG | -0.188 |
| ACTCAGCG | -0.0473 |
| CGTCAACA | -0.211 |
| GTATCGAC | 0.405 |
| TCTAAGAA | 0.072 |
| CGCACGTC | -0.143 |
| CATTAGGA | 0.144 |
| AACGGTGC | -0.077 |
| CTCTATGC | -0.0127 |
| ATACACCC | 0.391 |
| TCCGGTAA | -0.0489 |
| AGTTGGAG | 0.0105 |
| GGAGCCAA | -0.148 |
| AGTCCAAA | -0.244 |
| CCCAGCCC | -0.0899 |
| GAGCGGAC | -0.36 |
| GCCTTAAC | -0.311 |
| GCATATGC | 0.129 |
| GGGCGCGA | -0.0556 |
| CGCGTACC | -0.152 |
| ACGAGTAT | 0.248 |
| TCCGCAGA | -0.00558 |

| Sequence | binding signal [E-score] |
| --- | --- |
| AGGGCTTA | -0.088 |
| ACTGCAGC | -0.12 |
| CGGTTACA | 0.063 |
| ACGTACTC | -0.168 |
| CTTATGAA | -0.218 |
| CTTCAGGA | -0.188 |
| ATTCATCC | 0.0795 |
| AACGCCAA | -0.0829 |
| ATTGAAAA | -0.218 |
| AACTGTAG | -0.0486 |
| AACACGTA | 0.0976 |
| CACCAACG | -0.0837 |
| CTAGGCGA | 0.0285 |
| CTAGCTCA | -0.14 |
| GAGGACCA | -0.285 |
| CCATGGTA | 0.128 |
| CGGATTGC | 0.23 |
| ATCGAAAA | 0.122 |
| TGCGCTAA | -0.106 |
| CCGGATTC | 0.249 |
| GCAGTAGA | 0.0842 |
| CAACAGAG | -0.143 |
| ACGAACTG | -0.18 |
| GCAGCAAC | -0.0465 |
| CGACAGTC | -0.288 |

| Sequence | binding signal [E-score] |
| --- | --- |
| CGCGCGTC | -0.111 |
| CAACTCAA | -0.139 |
| CGACTCAC | -0.0464 |
| AACCGCCC | -0.0199 |
| CACGGTCC | -0.231 |
| CAGCATGG | 0.0221 |
| ACTGGGAT | 0.239 |
| AGTTCCGG | 0.00713 |
| CACCACTG | 0.0781 |
| ACCTCGTG | 0.0662 |
| AAAAGGGC | -0.101 |
| ACCAGGCT | 0.0157 |
| GGGGGAAC | -0.115 |
| ATAGTGGC | 0.0268 |
| AGAAGCGA | -0.0723 |
| CAGACCAA | -0.0504 |
| TCCGGAGA | -0.0926 |
| AACGTCTC | 0.0395 |
| AGGCCCGG | -0.179 |
| ATTGGCGC | -0.131 |
| CGGGATGC | -0.128 |
| ACGAAATC | -0.103 |
| AGGTGCCC | -0.247 |
| AGCAACGG | -0.137 |
| AATTAATC | 0.0627 |

| Sequence | binding signal [E-score] |
| --- | --- |
| ACGAGGAC | -0.0246 |
| AGAAAACG | -0.106 |
| ATCCATCA | 0.286 |
| GCTCCTGA | -0.0918 |
| GCGGGAAA | -0.188 |
| CGAACCAG | -0.0856 |
| GCCAACAA | -0.291 |
| GCCACTCA | -0.0675 |
| AAAAGAAT | 0.0426 |
| CGTCCCTC | -0.125 |
| ACTCACTC | -0.0976 |
| GACTCTGA | 0.0739 |
| AATGTGAT | 0.178 |
| ACGGCCAA | -0.104 |
| CAAGGGAC | -0.303 |
| CCAAGGAC | -0.114 |
| GCCATTCA | -0.0478 |
| AATGATGT | -0.29 |
| ATGCGTCA | 0.0713 |
| CGTGTAAG | 0.0716 |
| CTGGGCGA | 0.0462 |
| CGCACTAA | -0.168 |
| CCGTTAGG | -0.0266 |
| ACCCGACG | -0.12 |
| ACCCCCCG | 0.168 |

| Sequence | binding signal [E-score] |
| --- | --- |
| ACCACAGC | -0.198 |
| ACCGCGCA | -0.0459 |
| ACACAAAA | -0.00483 |
| TAATACTA | 0.276 |
| ATTTGTCA | -0.031 |
| ACAAACAA | -0.24 |
| AGGGACAG | -0.133 |
| ACTAGGTG | -0.0363 |
| GGGGAATA | 0.0727 |
| CTTCGGTC | -0.0715 |
| GCTGTCTA | -0.134 |
| CTGTACAG | -0.179 |
| ACGAACCA | -0.0843 |
| ATCTTAAT | 0.0937 |
| AGACTAAA | -0.108 |
| CCGAGAAG | 0.0888 |
| ACAATTAA | -0.0308 |
| CATTGGGC | -0.211 |
| GTAGCATA | 0.00125 |
| AGCACGCT | -0.189 |
| GAACACCC | 0.205 |
| ATGTGAGA | 0.165 |
| GATCTTAA | 0.111 |
| GATCAGCA | 0.235 |
| GAGTGTTA | -0.0963 |

| Sequence | binding signal [E-score] |
| --- | --- |
| CTAGGCGC | -0.106 |
| GTGTGGGA | 0.0691 |
| AGGTTGTA | -0.0498 |
| CTCAAATA | -0.0396 |
| AGGTACGC | -0.093 |
| CTCTCACC | 0.0859 |
| AACGCGTG | -0.19 |
| CTACACCC | 0.263 |
| GACCCTAA | -0.0378 |
| ATACCTTA | 0.385 |
| AAGTGCGG | -0.116 |
| AGTGAGAT | 0.306 |
| CCCGCCCC | 0.188 |
| AACTCGAC | -0.0294 |
| AGGACCCA | -0.105 |
| AGCTTTTA | -0.266 |
| ACTCGCGC | -0.0626 |
| AAAGGGTG | 0.0999 |
| ACGACCGG | -0.0701 |
| CGAGTCCC | -0.168 |
| TGGGTTAA | 0.000645 |
| CGCTATTC | 0.0301 |
| GCGCACCC | -0.102 |
| ACCCGTAA | 0.117 |
| TGGCTTAA | -0.139 |

| Sequence | binding signal [E-score] |
| --- | --- |
| CCGTAACA | -0.18 |
| CCCTGCTA | 0.0184 |
| AAGAAAGA | -0.0922 |
| ACCAGATC | 0.349 |
| ACTATCGA | 0.263 |
| CGAGCTCA | -0.0261 |
| CTGGGCTC | -0.17 |
| GAAGTGAC | -0.22 |
| GCCGACCC | -0.131 |
| ATATGAAG | 0.0142 |
| CTATGCAA | -0.159 |
| CGACACAG | -0.0271 |
| TAAGAGGA | 0.0461 |
| GGTCGGTA | 0.0287 |
| GCAGCGGC | -0.302 |
| CGTAAGAC | -0.0929 |
| ACTCACCG | -0.128 |
| GTGTGAAA | -0.0509 |
| GAATCGAC | -0.06 |
| GAAGTCAA | -0.225 |
| AAATTGTT | -0.186 |
| AGTACCGC | -0.199 |
